# Measured values published in paper PMC12040169 (PLOS Biology, 2025).
# This is one part of the list.
# System: T1, C. trachomatis L2/434/Bu expressing GFP (CTL2-GFP)
# T1 construct: L2/434/Bu GFP intracellular growth in HeLa cells
# Design: species or system HeLa; C. trachomatis total inclusion area by high-content imaging, normalised to DMSO
# Settings: total inclusion area; 28.5 h, 10 µM; inhibitor
# Method in brief: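 Imaging read-out: GFP inclusions and Hoechst nuclei captured by high-content imaging after fixation. Inclusion area/number = chlamydial growth; nuclei count = host cell viability. MIC calculated per earlier method.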
row,SMILES,% of control remaining
1,CCc1noc(C)c1C(=O)N1CC[C@@H](CNC(=O)N2CCCC2)[C@H](O)C1 [CBK307222],85.5375
2,Cn1c(=O)oc2cc(S(=O)(=O)NCCC(=O)O)ccc21 [CBK267567],98.7161
3,Fc1ccc(CCN2CCC(Oc3nccnc3OCCN3CCOCC3)CC2)cc1 [CBK082937T],83.3608
4,Cc1csc2nc(-c3ccccc3)cn12 [CBK098072],61.8168
5,Cc1cccc(OCc2nnc(SCC(=O)Nc3cc(C(F)(F)F)ccc3Cl)o2)c1C [CBK267204],109.264
6,Cc1cc(CNC(=O)COc2ccc(C#N)cc2)c2ccccc2n1 [CBK270129],118.318
7,O=C(Cc1cccs1)N1CCC(c2cc3ncccc3[nH]2)CC1 [CBK283393],94.453
8,O=C(O)COc1ccc(Br)cc1/C=C\c1nc(O)c([N+](=O)[O-])c(=O)[nH]1 [CBK267223],115.378
9,COc1cc(Cl)c(C)cc1NC(=O)c1ncn(-c2ccccc2)n1 [CBK269456],81.5277
10,O=C(CSc1nc2cccnc2[nH]1)Nc1cc(Cl)ccc1Cl [CBK264644],119.14
11,COCCCNC(=S)Nc1ccc(N2CCOCC2)c2nonc12 [CBK266947],91.2339
12,C/C(=N\NC(=O)CSc1nc2ccccc2n1Cc1ccccc1)c1ccco1 [CBK263180],65.0254
13,CCn1cc(S(=O)(=O)NC2(c3ccc(F)cc3)CC2)cn1 [CBK282801],77.1577
14,COc1ccc(CCC(=O)Nc2ccccc2N2CCCNCC2)cc1 [CBK024286T],104.892
15,Cc1nnsc1C(=O)Nc1ncn(CC(=O)N2CCCCCC2)n1 [CBK305522],16.3066
16,Cc1c(C(=O)O)sc(S(=O)(=O)N2CCN(C(=O)CCc3cccs3)CC2)c1C(=O)O [CBK297135],82.2794
17,Cn1ccc(C(=O)NC(Cc2ccsc2)c2cccnc2)n1 (centres unmarked) [CBK285117],79.587
18,Cc1cc(NC(=O)c2cccc(N3C(=O)CCC3=O)c2)no1 [CBK287352],93.3983
19,Cc1onc(-c2c(Cl)cccc2Cl)c1N(C)C(=O)N1CCCCC1 [CBK086555],107.765
20,Cc1occc1-c1nnc(SCC(=O)Nc2c(C)n(C)n(-c3ccccc3)c2=O)o1 [CBK269042],85.5869
21,CCN(CC(C)C#N)C(=O)c1nnn(-c2ccc3ncccc3c2)c1C (centres unmarked) [CBK305292],86.9998
22,NCc1ccc(CN(Cc2ccc(-c3ccccc3)cc2)C(=O)Nc2c(F)cccc2F)cc1 [CBK046115C],50.3485
23,CC(C)(C)Cc1ccc(CC(=O)O)c(OCc2ccccc2)n1 [CBK012508],101.834
24,COc1cccc(CC(=O)Nc2ccc3c(C)cc(C)nc3n2)c1 [CBK287992],109.025
25,COc1ccc(C(=O)CN2CCN(CCN3C(=O)c4cccc5cccc(c45)C3=O)CC2)cc1 [CBK074628],91.039
26,Cc1cnn(CC(=O)N2CCC(c3cc4ncccc4[nH]3)CC2)c1 [CBK284458],111.263
27,COc1ccc2c(c1)OC1(CCN(C(=O)c3cc(OC)c(C)c(OC)c3)CC1)NC2=O [CBK166244],104.166

row,SMILES,% of control remaining
1,CCn1cc(C(=O)O)c(=O)c2cc(F)c(N3CCN(C(=O)c4ccc(C)cc4)CC3)cc21 [CBK286986],75.5454
2,CC(C)(C)OC(=O)N1CCN(c2ccc([N+](=O)[O-])cn2)CC1 [CBK000134],72.0066
3,CC(CCCC(C)(C)O)CC1OCCC(C)O1 (centres unmarked) [CBK019986],24.7511
4,COc1cccc(NC(=O)N2CCN3C(=O)[C@H](CC4CCCCC4)NC(=O)[C@H]3C2)c1 [CBK289615],99.1778
5,Cc1cnc2[nH]c(C3CCCN(C(=O)c4cnn(C)c4C)C3)cc2c1 (centres unmarked) [CBK285171],96.0508
6,CC(=O)c1c(C)oc2ccc(N(C(=O)c3cccc([N+](=O)[O-])c3)S(=O)(=O)c3cccc4cccnc34)cc12 [CBK267044],97.1328
7,CC1(c2ccccc2)NC(NC2CCCCC2)=NC1=O (centres unmarked) [CBK008081],63.829
8,Cc1cc(N(C)Cc2ccccc2Br)nc(N)n1 [CBK297753],20.6044
9,CN1CCN(C(=S)SCC(=O)O)CC1 [CBK261549C],90.6712
10,Cc1nnc(SCc2nc(N)nc(Nc3ccccc3)n2)s1 [CBK266436],111.049
11,COc1cncc(-c2cnc(N)c(N3CCOCC3)n2)c1 [CBK063360],111.11
12,Cc1nn(-c2ncccn2)c2c1C(C(=O)c1ccccc1)CC(=O)N2 (centres unmarked) [CBK287890],130.711
13,O=C(NCCc1c[nH]c2ccc(Cl)cc12)c1cccnc1 [CBK159778],89.4423
14,CC(=O)Nc1c(O)nc(SCC(=O)Nc2ccc(Cl)cc2)[nH]c1=O [CBK266214],95.5502
15,N#CCCN(Cc1ccccc1)C(=O)c1ccccc1[N+](=O)[O-] [CBK264434],97.1527
16,NCCNc1ccc([N+](=O)[O-])c(Sc2nc3ccccc3[nH]2)c1 [CBK265882],92.0918
17,CN(CCCc1nc(-c2ccc(Cl)cc2)no1)S(=O)(=O)c1ccc([N+](=O)[O-])cc1 [CBK267365],122.015
18,Nc1c(C(=S)c2cccs2)oc2c1C(c1ccccc1)CC(=O)N2 (centres unmarked) [CBK020690],1.725
19,COc1ccccc1CC(CC(=O)O)C(=O)O (centres unmarked) [CBK261508],90.5765
20,COc1cc2c(cc1OC)CN(C(=O)c1ccccn1)CC2 [CBK115864],119.562
21,COC(=O)CCn1c(-c2ccccn2)cc2cccnc21 [CBK282634],99.9993
22,CC(C(=O)c1ccc(-c2ccccc2F)cc1)N1CCN(c2ccc(C#N)cc2)CC1 (centres unmarked) [CBK074706],54.8017
23,Cc1nn(C)cc1CN1CCCC(c2cc3ccccc3cn2)C1 (centres unmarked) [CBK285041],77.7594
24,CCOC(=O)CN1CCC(Oc2cncc(OCc3ccc(Cl)c(Cl)c3)n2)C1 (centres unmarked) [CBK084432],84.1916
25,COc1ccc(C2(C(=O)NCc3ccc(Cl)c(Cl)c3)CC2)cc1 [CBK149827],82.0948
26,CC1(C)C2CCC1(CS(=O)(=O)N(Cc1ccccc1)Cc1ccccc1)C(=O)C2 (centres unmarked) [CBK266082],70.6012
27,OCCN1CC2(CCN(Cc3cccc(Oc4ccccc4)c3)CC2)c2ccccc21 [CBK131528],91.4019

row,SMILES,% of control remaining
1,COc1cccc(NC(=O)CSc2nnc(CC(C)C)n2C)c1 [CBK269626],96.6424
2,CC(C)(C)C(=O)Nc1ccc(C(=O)Nc2cccc(C(=O)O)c2)cc1 [CBK261329],96.5825
3,Cc1ccc(SCCNCCN2CCOCC2)cc1 [CBK268581G],111.653
4,COCCNC(=O)C1(O)c2ccccc2NC(=O)N1c1cccc(OC)c1 (centres unmarked) [CBK288589],109.676
5,COc1ccc(C(=O)Nc2ccc(N3CCNCC3)nc2)cc1 [CBK029434T],87.768
6,COc1ccc(C(=O)OC(C)(C)C)c(-c2cncc(NCc3ccco3)n2)c1 [CBK037751],115.6
7,CCc1noc(C)c1C(=O)NCc1cccnc1N(C)C1CCCCC1 [CBK306804],89.7706
8,COC(=O)c1cn(C(=O)c2snnc2C)nc1C(C)(C)C [CBK021420],88.5192
9,CN1CCN(c2nc(-c3ccoc3)cnc2N)CC1 [CBK063362],114.203
10,CC(C)N(CCC(c1ccccc1)c1cc(Br)ccc1OCc1ccccc1)C(C)C (centres unmarked) [CBK017656],19.3551
11,Cc1ccc(NC(=O)c2ccc(-n3nncc3C)cc2)cc1 [CBK287790],91.9185
12,CCOC(=O)c1cc(C)sc1NC(=O)CCC(=O)O [CBK265412],84.2374
13,C[C@H](NC(=O)OC1CC[C@@]2(c3ccccc3)CCN(C)[C@H]2C1)c1cccc2ccccc12 (some centres unmarked) [CBK003664],61.8113
14,CCOC(=O)c1[nH]c2c([N+](=O)[O-])cccc2c1O [CBK115315],72.1828
15,Cc1cc2nc(NC(=N)N)nc(C)c2cc1C [CBK262269],62.0723
16,Cn1ncc2c1CCCN(C(=O)CCCOc1ccccc1F)C2 [CBK285278],91.461
17,O=C(O)CSCC(=O)N(Cc1ccccc1)c1nc(-c2ccccc2)c(-c2ccccc2)s1 [CBK296138],127.041
18,CNCc1cccc(OC)c1OCc1ccccc1F [CBK269949C],100.865
19,COCCOCC(C)NC(=O)COc1nn(C)c2nc(C)cc(C)c12 (centres unmarked) [CBK305177],77.6295
20,CCC(C)(C)c1ccc(S(=O)(=O)N2CCN(Cc3ccc(O)c(F)c3)CC2)cc1 [CBK062968],99.3418
21,O=C(CCCn1cccn1)N1CCCN(Cc2ccc(F)cc2)CC1 [CBK304641],35.8694
22,CCc1onc(C)c1C(=O)NCC1CCCCN1CC(C)C (centres unmarked) [CBK305124],51.0099
23,COc1ncc(-c2cnc3[nH]c(=O)n(C4CC4)c3n2)cn1 [CBK064908],155.714
24,COc1cccc(Cc2c(C)nc3c(C(=O)NCCCN4CCCC4=O)cnn3c2C)c1 [CBK162055],64.8271
25,Cc1cc(Cl)ccc1CNC(=O)c1ccccc1Nc1cccc(C(F)(F)F)c1 [CBK149544],83.747
26,CCN1CCN(C2CCN(Cc3ccccc3[N+](=O)[O-])CC2)CC1 [CBK264631G],122.129
